Test results published in paper PMC4336329 (PLoS ONE, 2015).
In all, about 310,000 compounds went through this assay and about 14,000 (4.5%) showed an effect of 50% or more. Effects have a minus sign here. The list shows a part of the results.

target: human ether-à-go-go-related gene (hERG) potassium channel (human, UniProt Q12809); experiment: primary screen, population patch clamp on CHO cells stably expressing hERG
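Also: peak tail current of the secondary pulse compared with the same well before compound.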

Chain of human ether-à-go-go-related gene (hERG) potassium channel (Q12809 whole entry, looked up): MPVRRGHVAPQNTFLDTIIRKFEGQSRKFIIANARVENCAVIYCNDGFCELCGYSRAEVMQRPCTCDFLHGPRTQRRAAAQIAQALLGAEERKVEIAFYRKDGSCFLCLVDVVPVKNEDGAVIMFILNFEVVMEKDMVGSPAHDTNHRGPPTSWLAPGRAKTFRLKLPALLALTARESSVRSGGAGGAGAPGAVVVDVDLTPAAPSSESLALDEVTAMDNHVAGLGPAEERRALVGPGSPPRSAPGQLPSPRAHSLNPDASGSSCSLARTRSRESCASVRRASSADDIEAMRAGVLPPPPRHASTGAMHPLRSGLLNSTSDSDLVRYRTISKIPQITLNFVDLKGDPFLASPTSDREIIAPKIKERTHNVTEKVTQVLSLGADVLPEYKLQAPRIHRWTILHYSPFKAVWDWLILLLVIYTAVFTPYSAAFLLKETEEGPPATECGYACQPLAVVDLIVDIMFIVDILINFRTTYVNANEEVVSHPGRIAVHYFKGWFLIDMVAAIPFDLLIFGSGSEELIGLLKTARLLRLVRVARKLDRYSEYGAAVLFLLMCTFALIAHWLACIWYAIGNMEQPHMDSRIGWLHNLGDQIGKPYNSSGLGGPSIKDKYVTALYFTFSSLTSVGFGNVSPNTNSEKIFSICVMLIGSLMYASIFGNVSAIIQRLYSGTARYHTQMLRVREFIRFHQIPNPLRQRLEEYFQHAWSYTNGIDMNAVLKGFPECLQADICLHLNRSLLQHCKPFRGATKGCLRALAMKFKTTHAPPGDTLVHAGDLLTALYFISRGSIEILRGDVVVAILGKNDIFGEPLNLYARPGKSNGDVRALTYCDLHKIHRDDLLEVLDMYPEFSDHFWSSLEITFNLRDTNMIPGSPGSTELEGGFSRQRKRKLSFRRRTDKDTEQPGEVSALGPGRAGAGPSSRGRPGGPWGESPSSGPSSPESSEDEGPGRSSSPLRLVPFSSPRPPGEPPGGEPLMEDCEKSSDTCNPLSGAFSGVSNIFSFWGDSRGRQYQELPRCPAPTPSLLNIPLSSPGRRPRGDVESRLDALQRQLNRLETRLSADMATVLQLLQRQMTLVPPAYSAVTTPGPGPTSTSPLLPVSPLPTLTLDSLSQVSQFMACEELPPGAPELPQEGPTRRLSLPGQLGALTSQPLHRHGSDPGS

SMILES	hERG current change (%, negative = inhibition) at 10uM
COc1cccc(NC(=O)c2ccncc2)c1	14.3%
Cc1ccccc1-n1nc2c(c1NC(=O)c1cc3ccccc3oc1=O)CS(=O)C2 (centres unmarked)	-0.677%
COc1ccccc1C1C([N+](=O)[O-])=CC([N+](=O)[O-])=CN1C (centres unmarked)	-6.69%
COc1cc(CNC(=O)c2cnc(C)cn2)cc(OC)c1	19.6%
O=C(OCCN=C1NS(=O)(=O)c2ccccc21)c1ccccc1F	-5.43%
Cc1noc(COc2ccc(OCc3nc(C)no3)cc2)n1	6.69%
CC(NS(=O)(=O)c1ccc(CCC(=O)NCc2ccco2)cc1)c1ccccc1 (centres unmarked)	-9.5%
CC1CCN(C(=S)c2cccc([N+](=O)[O-])c2)CC1	2.16%
CCn1c(SCC(=O)N2CCCC2)nc2c(c1=O)SCC2	8.67%
Cc1nc(C)c(CCNC(=O)c2cccc(Cl)c2)s1	-4.98%
Cl.Oc1ccccc1/C=N/NC1=NCCCCC1	-15.9%
CC1CCCN(CCCCOc2cccc(Br)c2)C1.O=C(O)C(=O)O (centres unmarked)	-69%
CS(=O)(=O)c1ccccc1C(=O)N1CCN(Cc2ccccc2)CC1	23.7%
COc1ccccc1N=C1SCCCN1C.I	-9.75%
CC(=O)c1cccc(NC(=O)N2CCC(NC(=O)C34CC5CC(CC(C5)C3)C4)CC2)c1	-1.89%
O=C(CCCn1c(=O)c2cccn2c2cccnc21)N1CCN(c2ccccc2F)CC1	-10.7%
CC(=O)Nc1ccc(S(=O)(=O)NC(CC(=O)NC2CCCCC2C)C(C)C)cc1 (centres unmarked)	14.6%
CCOC(=O)CNC(=O)CNC(=O)c1ccc(OCC(C)C)cc1	4.44%
CCc1ccc(C=NC23CN4CN(CN(C4)C2)C3)s1	6.67%
CCOc1ccc(-n2c(N)c(C(=O)NCc3ccco3)sc2=S)cc1	-9.96%
CCOC(=O)C1(Cc2cccc(F)c2)CCN(C(=O)C2CCCO2)CC1 (centres unmarked)	10.2%
CSc1nsc(SC)c1NC(=O)OC1CCCCC1	-15.1%
CCOC(=O)c1ccc(C(=O)OCC)c(NC(=S)Nc2ccc([N+](=O)[O-])cc2OC)c1	-3.54%
Cc1cccc(C)c1NC(=S)N(c1ccccc1)C(C)C	4.92%
COC(=O)[C@@]12CCCN1[C@H](c1ccc(SC3CCCCC3)cc1)[C@H]1C(=O)N(C)C(=O)[C@H]12.O=C(O)C(F)(F)F	-28.7%
CC(=O)c1cnc2cc(C)nn2c1C	1.66%

SMILES	hERG current change (%, negative = inhibition) at 10uM
CCN(C(=O)CN1CCN(Cc2ccccc2)CC1)c1c(N)n(Cc2ccccc2)c(=O)[nH]c1=O	37.6%
CC(=O)Nc1ccc(NC(=O)Nc2ccc(C)cc2C)cc1	18.9%
Cc1cccc(N2C(=O)CN(Cc3sccc3C)C2=S)c1	-7.83%
O=C(CCCC(=O)OCC(Cl)=C(Cl)Cl)Nc1ccc(F)cc1	7.87%
COc1ccc(NC(=O)CN2C(=O)NC(C)(c3ccccc3)C2=O)cc1Cl (centres unmarked)	-13.2%
O=C(Nc1cccc(F)c1)c1ccc(-c2ccccc2Cl)o1	-17.8%
Cn1cccc1Cc1nnc(SCC(=O)NCCc2ccccc2)n1C	16.2%
Cc1nonc1C1CCCN1Cc1nc(-c2ccc(F)cc2F)oc1C (centres unmarked)	19.8%
COC(=O)[C@@H](c1ccccc1)N(C)S(=O)(=O)c1cccc(S(=O)(=O)N(C)[C@@H](C(=O)OC)c2ccccc2)c1	1.05%
Cc1cc(-c2n[nH]c(=S)n2/N=C/c2cccc([N+](=O)[O-])c2)n[nH]1	13.6%
Cn1c(=O)[nH]c(=O)c2c1nc(CN1CCN(c3cccc(Cl)c3)CC1)n2Cc1ccccc1Cl	-2.1%
CCN(CC)c1ccc(CNc2ccc3c(c2)ncn3CC)cc1	-3.33%
O=C(Nc1c(-c2ccccc2)nc2ccccn12)c1cccs1	-0.848%
O=C(CSC1=NCCS1)Nc1nc(-c2ccccc2)cs1	-4.96%
COc1ccc(Cl)cc1S(=O)(=O)N(C)CC(=O)N1CCCC1	-0.48%
Cc1onc(-c2ccccc2)c1C(=O)OCC(=O)Nc1ccc(Cl)cc1	6.51%
O=C(NCc1ccco1)c1cc(Cl)nc(Cl)c1	8.26%
CC(=O)c1ccccc1N(C(=O)Cn1nnc2ccccc21)C(C(=O)NCC1CCCO1)c1ccc(N2CCOCC2)cc1 (centres unmarked)	-2.45%
O=C(COc1ccccc1)NCC(c1ccco1)N1CCN(c2ccccc2)CC1 (centres unmarked)	-26.6%
O=C(CC1N=C2c3ccccc3N=C(SCc3ccc(Cl)cc3)N2C1=O)NCc1ccco1 (centres unmarked)	-75.3%
Cl.NC(Cc1ccc(O)cc1)c1cn([C@@H](CCC(=O)O)C(=O)N2CCNCC2)nn1 (some centres unmarked)	11.5%
CC(=O)Nc1ccc(NCN2C(=O)C3C4CCC(C4)C3C2=O)cc1 (centres unmarked)	10.8%
O=C(CN1C(=O)NC2(CCCC2)C1=O)Nc1ccc(F)cc1	8.79%
CCC(C)(C)C1CCC2(CC1)NC(=O)N(CC(=O)NCCCc1ccccc1)C2=O (centres unmarked)	-14.1%
O=C(c1cc2nc(-c3ccc(Cl)cc3)cc(C(F)(F)F)n2n1)N1CCOCC1	-5.58%
COC(=O)c1ccc(COC(=O)CNC(=O)c2cccs2)cc1	10.1%

SMILES	hERG current change (%, negative = inhibition) at 10uM
Cc1ccc(-n2c(C)cc(-c3csc(N)n3)c2C)cc1.Cl	6.5%
O=C(c1ccccc1)N1N=C(c2ccccc2)CC1(O)C(F)(F)F (centres unmarked)	-14.3%
O=C(NCCN1CCN(S(=O)(=O)c2ccc([N+](=O)[O-])cc2)CC1)C(=O)Nc1ccccc1	13.5%
COc1ccc(Cl)cc1NC(=S)NCCc1c[nH]c2ccccc12	-12.5%
COc1ccc2oc(=O)c(C(=O)n3ccc(C)n3)cc2c1	-9.2%
CCC(OC(=O)CN1C(=O)c2ccccc2C1=O)C(=O)NC1CCCC1 (centres unmarked)	-0.744%
COc1ccc(C(=O)OC/C(O)=C(\C#N)c2nc3ccccc3[nH]2)cc1S(=O)(=O)N1CCOCC1	-1.23%
CCOC(=O)C1=C(CN2CCC(C)CC2)NC(=O)NC1c1ccc(Cl)cc1 (centres unmarked)	-37.6%
COc1ccc(C(=O)N2CCC(n3nccc3NC(=O)C3CCOC3)CC2)cc1 (centres unmarked)	7.99%
O=C(NCc1cccnc1)c1ccc([N+](=O)[O-])o1	10.3%
O=C1NC(c2ccccc2)C(C(=O)c2cccs2)C(O)(C(F)(F)F)N1 (centres unmarked)	-7.57%
Clc1ccc(-c2csc(N3CCC(c4ccccc4)C3)n2)cc1 (centres unmarked)	12.5%
Cc1ccccc1OCC(=O)OCC(=O)Nc1ccc(Cl)cn1	11.2%
O=C(Nc1cccc(-c2nc3cccnc3s2)c1)c1ccc(Cl)nc1	10.4%
Cc1ccccc1OCC(=O)OCC(=O)N1CCCc2ccccc21	4.34%
Cn1c(=O)c2c(nc3n2CC(O)CN3c2ccc(O)cc2)n(C)c1=O (centres unmarked)	20%
Cc1cc(C)n(-c2ccc(Cl)c(C(=O)NCc3ccccc3)n2)n1	18.6%
Cn1c(Cn2c(=O)sc3ccccc32)nnc1SCC(N)=O	-31.1%
COc1ccc(Cl)cc1N(CC(=O)NC1CC2CCC1C2)S(=O)(=O)c1ccccc1 (centres unmarked)	-31.5%
CC(C)CCN1CCN(Cc2cccc(C(F)(F)F)c2)CC1CCO (centres unmarked)	-55.1%
COc1cc(C(=O)OCCCN2CCCN(CCCOC(=O)c3cc(OC)c(OC)c(OC)c3)CC2)cc(OC)c1OC.Cl	-67.8%
COc1ccc(NC2=CC(=S)NC(C)(C)C2)cc1	16.4%
O=C(CSc1nnc(-c2ccc(Cl)cc2)o1)NNC(=O)c1ccncc1	5.53%
COC(=O)c1ccc2c(c1O)C(=O)c1ccccc1C2=O	-12.8%
O=C(Cc1ccccc1)NCC(=O)Nc1ccc(OC(F)(F)F)cc1	12.5%
